# Among all 310,000 compounds or so, about 2,200 (0.71%) showed an effect of 50% or more. The effect is printed as a negative number. The list shows a part of the results.
# Target: human ether-à-go-go-related gene (hERG) potassium channel (human, UniProt Q12809)
# Experiment: primary screen, population patch clamp on CHO cells stably expressing hERG
# Chain of human ether-à-go-go-related gene (hERG) potassium channel (Q12809 whole entry, looked up): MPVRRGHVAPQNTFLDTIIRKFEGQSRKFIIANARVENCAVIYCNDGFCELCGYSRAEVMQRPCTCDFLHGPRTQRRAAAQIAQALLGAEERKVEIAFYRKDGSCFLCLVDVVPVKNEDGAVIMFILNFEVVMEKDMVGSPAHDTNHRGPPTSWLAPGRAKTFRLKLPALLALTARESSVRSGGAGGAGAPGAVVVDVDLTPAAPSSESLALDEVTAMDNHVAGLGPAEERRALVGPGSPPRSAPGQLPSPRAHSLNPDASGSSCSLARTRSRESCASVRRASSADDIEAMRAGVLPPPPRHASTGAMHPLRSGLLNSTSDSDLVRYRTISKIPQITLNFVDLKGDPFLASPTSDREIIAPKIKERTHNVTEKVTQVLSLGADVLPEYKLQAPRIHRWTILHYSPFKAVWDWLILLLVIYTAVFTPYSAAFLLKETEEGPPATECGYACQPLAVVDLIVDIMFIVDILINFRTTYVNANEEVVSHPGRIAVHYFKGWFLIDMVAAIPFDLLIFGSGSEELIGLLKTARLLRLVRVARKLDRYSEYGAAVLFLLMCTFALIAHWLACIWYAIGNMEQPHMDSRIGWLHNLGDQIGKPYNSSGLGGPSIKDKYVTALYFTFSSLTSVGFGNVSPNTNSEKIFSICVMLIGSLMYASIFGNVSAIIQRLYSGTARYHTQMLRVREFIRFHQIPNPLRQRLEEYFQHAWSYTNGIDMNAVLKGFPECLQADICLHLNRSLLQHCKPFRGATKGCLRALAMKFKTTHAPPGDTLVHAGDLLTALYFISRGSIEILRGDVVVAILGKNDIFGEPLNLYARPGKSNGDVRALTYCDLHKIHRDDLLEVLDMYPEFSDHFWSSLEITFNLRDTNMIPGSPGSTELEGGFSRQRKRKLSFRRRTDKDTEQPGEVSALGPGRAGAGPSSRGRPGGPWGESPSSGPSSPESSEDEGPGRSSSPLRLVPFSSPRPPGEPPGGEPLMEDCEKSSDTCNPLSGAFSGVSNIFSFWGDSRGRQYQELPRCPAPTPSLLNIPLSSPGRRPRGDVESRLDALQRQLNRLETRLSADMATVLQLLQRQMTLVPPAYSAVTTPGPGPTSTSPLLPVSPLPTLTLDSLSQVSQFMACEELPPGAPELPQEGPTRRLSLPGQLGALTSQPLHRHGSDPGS
row,SMILES,"hERG current change (%, negative = inhibition) at 1uM [%]"
1,CCCS(=O)(=O)c1nc(S(=O)(=O)c2ccc(C)cc2)c(NCCCN(C)C)s1,7.76
2,Cc1ccc2nc(CSc3nc(C)cc(C)c3C#N)[nH]c2c1,6.27
3,COc1ccc(-c2c(C)oc3c(CN4CCOCC4)c(O)ccc3c2=O)cc1OC,0.45
4,CCC/C=C1/CCCOC(C(=O)NCc2cc(C)n(C)n2)(C(F)(F)F)C1 (stereo not shown),12.3
5,CCOC(=O)c1c(-c2ccc(Cl)cc2)csc1NC(=O)CNCc1ccco1.O=C(O)C(=O)O,-13.2
6,C/C=C(/C(=C/C)c1ccc(O)cc1)c1ccc(O)cc1,11.9
7,O=C(c1ccc(N2CCN(C3CC(=O)N(c4ccc(F)cc4)C3=O)CC2)cc1)c1cccnc1 (stereo not shown),-19.3
8,CCOC(=O)c1nsnc1NCCSC(=N)N.I,5.12
9,O=C(COc1ccc(C(=O)NCc2cccnc2)cc1)Nc1cccc(C(F)(F)F)c1,3.45
10,Cc1ccccc1C(=O)c1c[nH]c(C(=O)NCc2cccs2)c1,10.8
11,O=C1CC2c3ccccc3C1C1C(=O)N(CCc3ccccc3)C(=O)C21 (stereo not shown),12.4
12,CCOc1cc(NC(=O)CCl)c(OCC)cc1NC(C)=O,8.86
13,CC(=O)c1ccc(N2CCN(C(=O)C3CCN(S(=O)(=O)c4ccc(F)cc4)CC3)CC2)cc1,-5.59
14,CC/C(C)=N/Nc1nc2c(c(=O)[nH]c(=O)n2C)n1Cc1ccccc1,9.69
15,CCOc1cc(CNc2ncnc3nc[nH]c23)ccc1OC,6.21
16,Cc1cc(C)cc(N(CC(=O)NCCSCc2ccco2)S(C)(=O)=O)c1,-2.62
17,COc1ccccc1N(CC(=O)NCCc1ccccc1)C(=O)CCC(=O)Nc1cc(C)ccn1,8.98
18,O=C(CSC1=N/C(=C/c2ccco2)C(=O)N1c1ccc(OC(F)F)cc1)NC1CCS(=O)(=O)C1 (stereo not shown),14.1
19,CCN1C(=O)N[C@@H](CCc2ccccc2)[C@@H](C(=O)OC)[C@H]1C,4.39
20,CC(=O)c1ccc(OCc2cc(C(=O)N3CCN(c4ccccc4)CC3C)no2)cc1 (stereo not shown),15.1
21,CCC(C)N(C(=O)COC(=O)CSc1ccc([N+](=O)[O-])cc1)C1CCS(=O)(=O)C1 (stereo not shown),3.45
22,CSC1=NCCN1C(=O)c1c(-c2c(F)cccc2Cl)noc1C,6.42
23,Cc1ccc(N=Cc2cccc(O)c2O)c(C)c1,-22.6
24,COc1cc(/C=N/N(c2ccccc2)c2ccccc2)ccc1O,14.6
25,CC1CCCCC1NC(=O)CN1C(=O)COc2ccccc21 (stereo not shown),15.1
26,Cc1ccccc1NC(=O)c1nnn(-c2ccc3c(c2)OCCO3)c1N,12.1
27,O=C(CCS(=O)(=O)c1ccc(F)cc1)Nc1ccc(N2CCN(Cc3ccccc3)CC2)cc1,6.38
28,COc1ccc(NC2=NCCC(=O)N2Cc2cccs2)cc1.Cl,9.24

row,SMILES,"hERG current change (%, negative = inhibition) at 1uM [%]"
1,CCOCCCN(C(=O)c1snc(C(N)=O)c1N)C(C(=O)NCCC(C)C)c1ccc(Cl)cc1 (stereo not shown),-8.18
2,O=C(CNC(=O)c1ccc(Br)cc1)OCc1cc([N+](=O)[O-])cc2c1OCOC2,15.4
3,CCCCN(C)CCNC(=O)c1ccc2c(c1)NC(=O)C(N1CCCCC1)S2 (stereo not shown),5.12
4,CNC(=O)N(C1=NCCCCC1)c1ccc(Br)cc1,14.6
5,O=C(COC(=O)CCC(=O)c1ccc(Cl)cc1)NCc1ccco1,8.1
6,COc1ccc(CCCc2nnc(SCC(=O)Nc3ccccc3F)o2)cc1,11.1
7,COc1ccc(NS(=O)(=O)c2cccc(NC(=O)NCCCl)c2)cc1,10.4
8,COc1cccc(/C=C/C(=O)Nc2ccc(C(=O)Nc3cccc(S(N)(=O)=O)c3)cc2)c1OC,20.3
9,Cc1cc(NC(=O)COC(=O)C2CCN(S(=O)(=O)c3ccccc3)CC2)c([N+](=O)[O-])cc1C,-18.6
10,Clc1ccccc1OCc1nnc(-c2ccccc2Br)o1,15.5
11,C/C=C/C(O)c1ccc2ccccc2c1 (stereo not shown),15.7
12,CCOC(=O)C1C(=O)NC(c2ccccc2)=NC1c1ccc(F)cc1 (stereo not shown),11.9
13,COc1ccc(NC(=O)Cc2coc3cc(C)c(C(C)C)cc23)cc1S(=O)(=O)N1CCOCC1,12.3
14,CC(=O)Nc1c(O)nc(SCC(=O)Nc2nnc(CC(C)C)s2)[nH]c1=O,16.2
15,Cc1ccc(OCc2nnc(NC(=O)c3ccco3)s2)cc1,13
16,CCOC(=O)c1c(O)c2ccccc2n(C)c1=O,5.52
17,COc1ccc(C(=O)N2C[C@H]3C[C@@H](C2)c2cccc(=O)n2C3)cc1OC,11.9
18,COc1ccc2oc(=O)c(/C(C)=N/NC(=O)c3ccncc3)cc2c1,-1.21
19,CC(OCCN1CCCC1)(c1ccc(F)cc1)c1ccc(F)cc1.Cl,-23.6
20,Cc1nn2c(NCCN(C)C)c3c(nc2c1-c1ccccc1)CCCC3,-0.734
21,COc1cc(NC(=S)N2CCN(CCO)CC2)c(OC)cc1Cl,9.26
22,Cc1ccccc1S(=O)(=O)Oc1ccccc1C(=O)Oc1ccccc1,3.47
23,O=c1cc(-c2ccccc2)c2cc(Cl)c(O)c(CN3CCOCC3)c2o1,0.0878
24,c1ccc2oc(-c3ccn[nH]3)cc2c1,8.14
25,Cc1cc(C)c(NC(=O)C2CCCN(S(=O)(=O)c3c(C)noc3/C=C/N(C)C)C2)c(C)c1 (stereo not shown),7.6
26,Nc1ccc(-c2nc3ccc(N)cc3s2)cc1,4.59
27,O=C(CN1C(=O)/C(=C\C=C\c2ccccc2)SC1=S)Nc1ccc(F)cc1,14.8

# — PMC4336329 (PLoS ONE, 2015)
